Laboratory results: the supplement of paper PMC3334620
In all, about 33,000 sequences were measured (“E-score (-0.5 to 0.5)”: median about -0.032, highest 2% from about 0.36 on). The list shows a part of the results.

target: T1, Sko1 (UniProt Q02100); assay: PBM E-score (8-mer binding enrichment) (E-score (-0.5 to 0.5)); higher = stronger / more preferred TF binding; most listed sequences are background and not binding sites; conditions: protein concentration: 200 nM; construct: GST-full length
T1 sequence: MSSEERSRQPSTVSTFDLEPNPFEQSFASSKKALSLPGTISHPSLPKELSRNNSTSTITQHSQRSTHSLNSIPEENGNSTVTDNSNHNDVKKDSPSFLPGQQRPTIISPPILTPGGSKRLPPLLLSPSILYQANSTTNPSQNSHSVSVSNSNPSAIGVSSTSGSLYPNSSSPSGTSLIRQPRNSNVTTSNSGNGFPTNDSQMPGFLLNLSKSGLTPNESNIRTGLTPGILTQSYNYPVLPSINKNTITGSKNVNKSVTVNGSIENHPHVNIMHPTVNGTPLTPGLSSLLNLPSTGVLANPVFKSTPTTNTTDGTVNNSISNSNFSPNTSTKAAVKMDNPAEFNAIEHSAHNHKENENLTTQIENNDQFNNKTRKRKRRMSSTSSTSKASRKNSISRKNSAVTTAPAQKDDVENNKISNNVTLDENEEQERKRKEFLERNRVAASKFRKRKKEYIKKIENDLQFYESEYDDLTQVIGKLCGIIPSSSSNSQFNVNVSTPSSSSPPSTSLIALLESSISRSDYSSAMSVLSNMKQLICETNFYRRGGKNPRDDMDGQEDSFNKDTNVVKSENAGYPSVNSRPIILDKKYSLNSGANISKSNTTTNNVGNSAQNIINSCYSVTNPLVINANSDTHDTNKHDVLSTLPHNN
Procedure: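 Universal 'all 10-mer' protein binding microarrays (Agilent AMADID 015681) probed with GST-tagged S. cerevisiae TFs (full-length or DBD) made by in vitro transcription/translation (PURExpress), about 100-200 nM. Bound TF was detected with fluorescent anti-GST. Each ungapped 8-mer (which stands for itself and its reverse complement) is scored by the PBM enrichment score (E-score), a modified Wilcoxon-Mann-Whitney statistic from -0.5 to +0.5, computed with the Universal PBM Analysis Suite. Scale: above 0.35 generally sequence-specific binding.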

Question: How did the “PBM E-score” value turn out when AGGGGATG was run?
Answer: The value was -0.0368.

Question: AGATGCCG was tested. Which “PBM E-score” value did it give?
Answer: Its value is 0.00796.

Question: With AAGTAGGC as the sequence, how does the “PBM E-score” value read?
Answer: Its value is -0.0531.

Question: Which “PBM E-score” value does the source give for ACGATGGA here?
Answer: The value was 0.0944.

Question: With CGGAACCA as the sequence, how does the “PBM E-score” value read?
Answer: The value was -0.045.

Question: Which “PBM E-score” value does the source give for CGGCCCAA here?
Answer: Its value is -0.27.

Question: ATTGATGA was tested. Which “PBM E-score” value did it give?
Answer: The value was 0.147.

Question: Which “PBM E-score” value does the source give for ACCGCGAG here?
Answer: The value was -0.0548.

Question: Which “PBM E-score” value does the source give for TTAGTAAA here?
Answer: The value was 0.162.

Question: For GACTAGCC, which “PBM E-score” value is on record?
Answer: Its value is -0.311.

Question: TCTATAAA was tested. Which “PBM E-score” value did it give?
Answer: The value was 0.282.

Question: Which “PBM E-score” value does the source give for CCCATGCA here?
Answer: The value was 0.0383.

Question: Which “PBM E-score” value does the source give for ACAACTAT here?
Answer: Its value is 0.0583.

Question: How did the “PBM E-score” value turn out when CATCTTAC was run?
Answer: Its value is 0.228.

Question: For AGCATAGG, which “PBM E-score” value is on record?
Answer: Its value is -0.144.

Question: Which “PBM E-score” value does the source give for ACACTAGA here?
Answer: Its value is -0.0027.

Question: ATAGTCGA was tested. Which “PBM E-score” value did it give?
Answer: The value was 0.184.

Question: How did the “PBM E-score” value turn out when CGGATATC was run?
Answer: The value was -0.00741.

Question: Which “PBM E-score” value does the source give for ACCTATCG here?
Answer: The value was -0.0463.

Question: ATGGCTTA was tested. Which “PBM E-score” value did it give?
Answer: The value was 0.0716.

Question: Which “PBM E-score” value does the source give for TTCACGAA here?
Answer: The value was 0.183.

Question: With ACAAGGGG as the sequence, how does the “PBM E-score” value read?
Answer: Its value is -0.179.

Question: Which “PBM E-score” value does the source give for TACTTTAA here?
Answer: Its value is 0.0617.

Question: AGGGCTTC was tested. Which “PBM E-score” value did it give?
Answer: The value was -0.127.

Question: ATCAAGAT was tested. Which “PBM E-score” value did it give?
Answer: Its value is 0.0875.

Question: How did the “PBM E-score” value turn out when GGCCGATA was run?
Answer: Its value is 0.0322.

Question: How did the “PBM E-score” value turn out when GCCATTAC was run?
Answer: Its value is 0.124.

Question: With CAGGCCCC as the sequence, how does the “PBM E-score” value read?
Answer: Its value is -0.271.

Question: CATTCCGG was tested. Which “PBM E-score” value did it give?
Answer: Its value is -0.327.

Question: CCAATATA was tested. Which “PBM E-score” value did it give?
Answer: Its value is 0.104.

Question: Which “PBM E-score” value does the source give for GCTATAGC here?
Answer: Its value is -0.168.

Question: Which “PBM E-score” value does the source give for CAGCAATA here?
Answer: Its value is -0.0584.

Question: For CCCCAGTC, which “PBM E-score” value is on record?
Answer: Its value is -0.262.

Question: For AAGCTAGG, which “PBM E-score” value is on record?
Answer: Its value is -0.198.

Question: For GCCCTTTA, which “PBM E-score” value is on record?
Answer: The value was -0.273.

Question: GCTTGTTA was tested. Which “PBM E-score” value did it give?
Answer: The value was -0.0288.

Question: Which “PBM E-score” value does the source give for AATAAGCT here?
Answer: The value was 0.0887.

Question: How did the “PBM E-score” value turn out when ACCACCAT was run?
Answer: The value was 0.00571.

Question: GATTTAAA was tested. Which “PBM E-score” value did it give?
Answer: The value was 0.0288.

Question: CGTCTTGC was tested. Which “PBM E-score” value did it give?
Answer: The value was 0.101.

Question: AGAATCCG was tested. Which “PBM E-score” value did it give?
Answer: Its value is -0.0518.

Question: Which “PBM E-score” value does the source give for AATCTTCT here?
Answer: The value was -0.078.

Question: With TCGGGAGA as the sequence, how does the “PBM E-score” value read?
Answer: Its value is -0.177.

Question: For ATGCCCCA, which “PBM E-score” value is on record?
Answer: The value was -0.19.

Question: How did the “PBM E-score” value turn out when CGACTAGC was run?
Answer: Its value is -0.236.

Question: How did the “PBM E-score” value turn out when CTGTCTTA was run?
Answer: Its value is 0.00021.

Question: With AGACACGG as the sequence, how does the “PBM E-score” value read?
Answer: Its value is -0.178.

Question: With CAAGGAGG as the sequence, how does the “PBM E-score” value read?
Answer: The value was -0.0002.

Question: AGCCGAGA was tested. Which “PBM E-score” value did it give?
Answer: The value was -0.279.

Question: For GGCACCCC, which “PBM E-score” value is on record?
Answer: Its value is -0.247.

Question: For CTGCGAAG, which “PBM E-score” value is on record?
Answer: The value was 0.00168.

Question: How did the “PBM E-score” value turn out when AACAGAGC was run?
Answer: Its value is -0.146.

Question: With CTGTGACA as the sequence, how does the “PBM E-score” value read?
Answer: The value was 0.169.

Question: Which “PBM E-score” value does the source give for ATCAGGAA here?
Answer: The value was 3e-05.

Question: How did the “PBM E-score” value turn out when CCGCTGCA was run?
Answer: The value was -0.0363.

Question: How did the “PBM E-score” value turn out when ATAGACGC was run?
Answer: Its value is 0.0915.

Question: How did the “PBM E-score” value turn out when AACATCTG was run?
Answer: The value was -0.0833.

Question: For CAACAACC, which “PBM E-score” value is on record?
Answer: Its value is -0.0035.

Question: With AAGATCAT as the sequence, how does the “PBM E-score” value read?
Answer: Its value is 0.0659.

Question: For CTAAGTTA, which “PBM E-score” value is on record?
Answer: Its value is 0.101.

Question: How did the “PBM E-score” value turn out when CCTCTGAC was run?
Answer: The value was 0.0928.

Question: With CGAGCCAC as the sequence, how does the “PBM E-score” value read?
Answer: The value was -0.171.

Question: TCCTCAGA was tested. Which “PBM E-score” value did it give?
Answer: The value was -0.146.

Question: How did the “PBM E-score” value turn out when CGCGCAAG was run?
Answer: The value was 0.0759.

Question: How did the “PBM E-score” value turn out when ACATTTTG was run?
Answer: Its value is 0.127.

Question: With GTACGCTA as the sequence, how does the “PBM E-score” value read?
Answer: The value was 0.232.

Question: How did the “PBM E-score” value turn out when ACAGAAGA was run?
Answer: Its value is 0.174.

Question: How did the “PBM E-score” value turn out when CCGAATAA was run?
Answer: Its value is 0.0785.

Question: Which “PBM E-score” value does the source give for CCACAAAG here?
Answer: Its value is -0.101.

Question: With ACCCACAT as the sequence, how does the “PBM E-score” value read?
Answer: Its value is -0.114.

Question: How did the “PBM E-score” value turn out when ACGGTGTG was run?
Answer: The value was -0.226.

Question: How did the “PBM E-score” value turn out when CGTCTCCC was run?
Answer: The value was -0.1.

Question: With AACACGCA as the sequence, how does the “PBM E-score” value read?
Answer: The value was 0.285.

Question: How did the “PBM E-score” value turn out when AGTACAAT was run?
Answer: Its value is 0.177.

Question: AGACTTGA was tested. Which “PBM E-score” value did it give?
Answer: The value was 0.0227.

Question: Which “PBM E-score” value does the source give for GCATGCGC here?
Answer: The value was 0.182.

Question: How did the “PBM E-score” value turn out when TGTTGGAA was run?
Answer: Its value is 0.0481.

Question: CATGCCCC was tested. Which “PBM E-score” value did it give?
Answer: Its value is -0.149.

Question: Which “PBM E-score” value does the source give for GGCTCAAC here?
Answer: Its value is -0.172.

Question: How did the “PBM E-score” value turn out when TGTGCAAA was run?
Answer: The value was 0.182.

Question: Which “PBM E-score” value does the source give for CATATCTA here?
Answer: The value was 0.138.

Question: With CCGAAATC as the sequence, how does the “PBM E-score” value read?
Answer: The value was 0.0145.

Question: For CCCTTACG, which “PBM E-score” value is on record?
Answer: The value was 0.326.

Question: CGTCTTAC was tested. Which “PBM E-score” value did it give?
Answer: The value was 0.224.

Question: How did the “PBM E-score” value turn out when AGCGGGTA was run?
Answer: Its value is -0.167.

Question: Which “PBM E-score” value does the source give for AGACGCAA here?
Answer: The value was 0.258.
